Measurements: the supplement of paper PMC3334620
Whole data set: some 33,000 sequences, median “E-score (-0.5 to 0.5)” near -0.013, cut for the highest 2% near 0.3. This is one part of the list.

The sequences below were run against T1, Msn1 (UniProt P22148) (assay: PBM E-score (8-mer binding enrichment) (E-score (-0.5 to 0.5)); higher = stronger / more preferred TF binding; most listed sequences are background and not binding sites). Settings: protein concentration: 200 nM; construct: GST-full length.
T1 sequence: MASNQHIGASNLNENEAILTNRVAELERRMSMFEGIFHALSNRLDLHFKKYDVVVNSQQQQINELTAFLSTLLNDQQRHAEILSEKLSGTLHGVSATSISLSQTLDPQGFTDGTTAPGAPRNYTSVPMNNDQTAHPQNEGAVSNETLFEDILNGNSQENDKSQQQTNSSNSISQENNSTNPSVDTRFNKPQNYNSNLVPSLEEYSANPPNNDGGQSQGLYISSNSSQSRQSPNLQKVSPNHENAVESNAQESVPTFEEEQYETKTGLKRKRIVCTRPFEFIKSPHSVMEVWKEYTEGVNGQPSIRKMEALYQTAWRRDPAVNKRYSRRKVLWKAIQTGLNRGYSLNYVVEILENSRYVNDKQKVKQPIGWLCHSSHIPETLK
Method: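 Universal 'all 10-mer' protein binding microarrays (Agilent AMADID 015681) probed with GST-tagged S. cerevisiae TFs (full-length or DBD) made by in vitro transcription/translation (PURExpress), about 100-200 nM. Bound TF was detected with fluorescent anti-GST. Each ungapped 8-mer (which stands for itself and its reverse complement) is scored by the PBM enrichment score (E-score), a modified Wilcoxon-Mann-Whitney statistic from -0.5 to +0.5, computed with the Universal PBM Analysis Suite. Scale: above 0.35 generally sequence-specific binding.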

Sequence | PBM E-score
AAGGGTCT | -0.293
CTGTACGA | 0.0832
AGTGTGAG | -0.112
CGCCACCG | -0.181
CAAATCCA | 0.0437
ATCTCATC | 0.0128
AGCCTCAT | -0.195
AAGGACTT | 0.347
CATGGTTA | 0.0662
CGAACCCA | -0.133
AAACTCTC | -0.0224
CTCGCCTA | 0.0586
CACTGTCA | 0.0817
CAGGAAAA | -0.00083
CGCGAGAA | -0.0556
TACCTAGA | -0.0997
AAACAAAA | 0.127
CCCGCAAA | -0.0161
ACAAAAAA | 0.225
AACTAGGG | -0.0474
AACCTAAG | 0.0615
GTCCATGA | 0.248
GCGCGACC | -0.0207
CAGAAGGA | -0.0904
AACAGATG | 0.0242

Sequence | PBM E-score
TTCTTAAA | -0.0303
CAGTTAAA | -0.00085
AGCCCTCG | -0.123
CCGTATGC | -0.102
CATGTGAG | -0.0689
GCGATAAC | -0.145
AAAAACCA | 0.244
GGAAATCC | 0.102
GACGACGA | -0.0942
CGAACTAA | -0.0033
CGCCTGCA | -0.0677
ACGGACTG | 0.0922
TACAAATA | 0.281
AAAGACAT | 0.387
AGCCCGCT | -0.155
ATACGTCG | -0.0782
CGACCATA | 0.086
GGTATTAA | -0.0168
AGACTGAG | -0.00524
CATTTGTA | 0.36
CGGACCAC | -0.0995
AGGGGCAT | -0.193
AAAGTTAC | 0.0837
ATTCCACG | 0.0113
TGACACCA | 0.00586

Sequence | PBM E-score
AGTGGCGA | -0.0214
GCAACATA | 0.0435
CGGAAGCC | -0.0918
GTGTCTGA | 0.185
GTGTCCTA | 0.468
GCGAAGAA | -0.0414
AGTAGTGC | -0.19
TCGGGTAA | -0.0398
CGGCCTGC | -0.153
GCCTAAAC | 0.0003
GGCGGCAA | -0.113
ATGGCCGA | 0.0106
GCGGAGAC | 0.186
AGCGCGTG | -0.133
GGGATGAC | 0.0385
CCAGCTGG | 0.182
TCACCGCA | -0.0728
CGTCATAG | -0.0255
GAACATAA | 0.113
AACCGCGA | 0.191
AGGGCGAC | -0.209
ACTTCCGA | 0.019
CCACCTCC | -0.24
CGTTCAGC | -0.0105
ACCGTCAA | -0.0194

Sequence | PBM E-score
GAATACGC | -0.0133
AAGCCGAC | -0.0829
AGGCCCAC | -0.359
AACTTGGA | 0.0755
AACCTCGA | 0.0191
CTAAGAGC | -0.126
AAAAGTAT | 0.17
AAGGAACC | 0.0949
ACGGCGTA | 0.0347
GTGTTCTA | 0.0609
ATTTGAGA | 0.13
AGCAAGCT | -0.128
AATCAACC | -0.189
AGAAGTGC | -0.19
AAAATACC | -0.0192
AAGACCCC | -0.145
CGAATCAC | -0.114
TAATGGAA | 0.151
ACTCACCA | -0.135
ACGCTGAG | -0.0691
TAGACTGA | -0.073
CTTCTAAA | 0.101
CGATCCAG | -0.133
GTTCGGCA | 0.135
CTTTTCTA | -0.00561

Sequence | PBM E-score
ACGATGAT | -0.135
AGGTGGAT | -0.135
ATCAGTTA | 0.044
AAGCGGAT | -0.0423
AAGACGTA | 0.198
GACTAAGA | 0.0562
ATGAGGTA | -0.0565
GGGTACTA | 0.0129
AACGTTAG | 0.0592
CACTCCTA | -0.075
CGTGGCGA | -0.00234
ATAAAAAA | 0.237
TCCGCACA | -0.0301
CTAAATTC | -0.0514
CGGTTCAC | -0.107
CCCGTTTC | -0.0123
ATGAACAT | 0.199
CAAACTAG | -0.06
CAGGATAG | -0.022
AGGTGCCC | -0.275
AGAAAGAG | -0.1
ATCTTGGC | 0.0935
GAACAGTC | -0.142
AAGTAATC | 0.00785
AGTGAAAG | -0.0712

Sequence | PBM E-score
ATTCTCGC | -0.175
CAAGGTCA | -0.112
CCATGCCA | -0.244
GATACGTA | 0.0976
ATCTTTCC | -0.0343
ATGTGTGA | 0.0323
AACATATC | 0.0631
GCTCGGGA | -0.112
CGGGAGAC | -0.0698
TCCAGGGA | -0.0453
ACAGGGCG | -0.0216
CACACTCC | -0.161
AAGGGCGA | -0.172
AGGAGCTG | -0.233
ATCCCGTG | 0.035
ACTCAGGC | -0.126
CCTGTCAA | -0.0852
AGCACCCT | -0.15
GTTATGTA | 0.0812
GGCATGGA | -0.0347
ATCCATTG | 0.0219
CTGAATGC | -0.115
AGCGCCAG | -0.168
CGGCTGTA | -0.0853
AAGATACC | 0.14

Sequence | PBM E-score
AACCGAAG | 0.044
AGACGTAA | 0.0947
CTCCTGAA | 0.0432
GCCCTGCA | -0.304
CCTGCGAG | -0.177
GCTAGACA | 0.212
GGATAGAA | 0.0986
CATTTTCG | 0.181
AAGGGCGT | -0.161
AGGTAACG | -0.133
CACTCTCG | -0.0442
ACCGAGAT | 0.22
TGATTAAA | 0.143
ACAGGCTA | -0.0867
ATTTTAAG | 0.131
CATCGCCC | -0.114
CTAAACTA | -0.0839
CGGTTACA | 0.0893
CATTACCC | 0.0272
CGTGATAG | 0.0377
TCGAATAA | 0.0777
CGCCCAAG | -0.157
